Test results from the supplement of paper PMC10126150.
Values marked as one replicate rest on one cluster of the flow cell; about a third of the high ones do not repeat.

System: ATP
Experiment: switch fluorescence ratio, 500 uM ATP over buffer (Cy3 cluster intensity, sum of 5 cycles each) (fold (ratio)); higher = stronger signal-on switching upon ATP binding; sequences stand for … in TCGTCGGCAGCGTCAGATGTGTATAAGAGACAGTTTTTTTTTTTTTTTTTTTTTTTTT…TC
Details: aptamer strand: ATP DNA aptamer (quencher-CACCTGGGGGAGTATTGCGGAGGAAGG + anchor), 100 nM annealed; ATP concentration: 500 uM; one replicate
In short: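 Values give the fluorescence ratio for each switch-domain sequence, averaged from per-cluster ratios of summed target-cycle to summed buffer-cycle Cy3 intensity. The Cy3-labelled switching-strand clusters sat on a modified Illumina MiSeq flow-cell, were annealed to 100 nM quencher-labelled ATP aptamer, and were imaged in selection buffer, then after 15 min with 500 uM ATP at 22 °C. Five cycles ran with NaOH stripping and re-annealing between them, and clusters outside 100-1000 RFU were excluded.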
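Also: ATP exposure 15 min at 22 °C before imaging.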

| Sequence | switch fluorescence ratio |
| --- | --- |
| CTAAGACTTT | 0.978 |
| GTTGTTCGAA | 1.03 |
| TCTTGGAGTT | 1.04 |
| GGGTCCTTAG | 1.04 |
| GTGGTTTCGT | 0.991 |
| GCTAGTACGG | 1.01 |
| CGTTCATGCC | 1.05 |
| CGATAGGTCT | 1.01 |
| CCCTGGTCTT | 0.974 |
| GCGCTACGGT | 1.1 |
| TTGACCCAAG | 0.992 |
| GTTGGGTTCA | 1.01 |
| TGGCGTATTG | 1.01 |
| ATTGAGTGCC | 1.01 |
| TGCAGCGGAA | 1.05 |
| AGCTCAGTGG | 0.972 |
| TTACTTCGGG | 1.01 |
| AGGCGCGTAA | 1.04 |
| AAGGAGGAC | 1.13 |
| GTCTCTAAAC | 0.957 |
| GTTCCAACAA | 1.03 |
| CAGGGGTTCT | 1.01 |
| GCTGCTTCTG | 0.988 |

| Sequence | switch fluorescence ratio |
| --- | --- |
| ACTATTTGTC | 0.999 |
| ACACCACTAA | 1.24 |
| CAATTACCAT | 1 |
| CTGGAATTAG | 1.05 |
| ATAGGATTTC | 0.982 |
| ATCTTGTGGA | 0.965 |
| GGAGTGGGCA | 1.04 |
| AACTCGTACA | 1.1 |
| ACCCTTTAAT | 1.04 |
| AGTAATGTTC | 1.04 |
| ATGGTGGGCA | 0.977 |
| AAATCGTATC | 0.96 |
| TGTTCTACGG | 1.01 |
| GAGGTACCA | 1 |
| CTATGCATTC | 3.6 |
| AGGATTGGC | 1.08 |
| GTTGGCGTGT | 0.953 |
| TAAGGGACAG | 1.02 |
| TCCATCTCAA | 0.991 |
| TGTCAGGTCC | 0.992 |
| CCTGTGTAG | 1.06 |
| GAAGGGAACA | 0.972 |
| AAGCGTTTTC | 1.01 |

| Sequence | switch fluorescence ratio |
| --- | --- |
| ATAATCGTGG | 0.995 |
| TTTCGTGGAT | 0.992 |
| TACTGCAATG | 1.31 |
| GTAAGAAAAA | 0.992 |
| CGATCAACCC | 1.04 |
| AGCTCGTTAG | 1.01 |
| AATTCGGGTG | 1.04 |
| TCAAACAGAG | 1.03 |
| AGGGCGCAGT | 1.03 |
| AGAACTCTCG | 0.991 |
| AACTGTGATG | 1 |
| ATTTCAGAGT | 0.999 |
| CGGCGTCGGA | 1.05 |
| CGGGTTAATT | 1 |
| TACATTTGTT | 1.02 |
| TCTAAATTGA | 0.944 |
| GGCTGTATGG | 0.97 |
| ACGGAACGGC | 1 |
| TATGTTTTAC | 1.05 |
| GTTGCCTTAA | 0.937 |
| CACAAATCA | 0.976 |
| GATATAATAC | 1.54 |
| GTAATACCAC | 1.13 |

| Sequence | switch fluorescence ratio |
| --- | --- |
| CATATGTGAG | 0.991 |
| GTCGAGCAGC | 1.09 |
| TCAGAACTAG | 0.998 |
| ACGACACTAG | 1.13 |
| TGTTCTGTT | 0.945 |
| TAAATACTTG | 1.09 |
| GAAATTGGAA | 1.02 |
| TACGGAGGGG | 1.01 |
| TGACCTAGGC | 0.991 |
| CGACAATCGT | 1.01 |
| GACCATCGAT | 0.995 |
| GGTAAATCAG | 0.995 |
| TAGTGGGATG | 1.01 |
| TTTGGCGGG | 1 |
| ACAAGAGCTG | 1.06 |
| TTTTTACTGA | 1.01 |
| CATGAGTAG | 1.02 |
| CCCCACCGGC | 1.02 |
| ATAACGGGCC | 1.07 |
| TGCATATGCT | 0.979 |
| AGATCCTGTG | 1.02 |
| CAGAGAGATT | 1.01 |
| GCGGTAGACC | 1.02 |

| Sequence | switch fluorescence ratio |
| --- | --- |
| CTGCGCTATG | 1.62 |
| CTCCTCTGTT | 1.47 |
| TATGTTGGTC | 0.968 |
| ACGATTGGCA | 1.03 |
| ACGTAGGAAC | 1.09 |
| CCATCTTGTC | 0.965 |
| AACGTCACGG | 1.49 |
| CATACCGGTT | 1.01 |
| TCCCAAGGGA | 1.46 |
| CACACTTTGA | 1.06 |
| AGTATGCCCT | 1.01 |
| GCCATTAGAT | 0.97 |
| TGTTCCGAGG | 1.13 |
| TAATGCCGCC | 1.03 |
| GAGAAGTGAA | 1.01 |
| TTTCGGGA | 0.966 |
| GGATAAAAGA | 1.03 |
| GGCTAACAC | 1.31 |
| ACGGTAATCT | 1.16 |
| ATAGGGCCTG | 1.04 |
| TGTATCGCAG | 0.983 |
| ATTATTACGC | 1.04 |
| TTGGTTATTG | 1.02 |

| Sequence | switch fluorescence ratio |
| --- | --- |
| ATAGACATAG | 1.02 |
| AAGATCGCTG | 0.93 |
| AATTATATAT | 0.994 |
| AACATCTTTT | 0.999 |
| ATAAGTTGAG | 1.03 |
| TCTGAGATA | 1.01 |
| CTTATCAAGT | 0.975 |
| TTGTAGTCAA | 1.19 |
| ATGTCTCCCT | 1.02 |
| AGGGGATCTA | 0.968 |
| GTAGAAGGTA | 0.998 |
| TGGCGTGCGA | 1.03 |
| GTTTCACTAT | 1.04 |
| GTAGGTGCCT | 1.04 |
| CCTGCCAAGG | 1.02 |
| TTTGCTGTAC | 1.73 |
| GTAGCTGGGT | 1.01 |
| ATCAGAGTC | 1.02 |
| TTGGCTGACC | 1.05 |
| GCGGTGCGAA | 1.02 |
| TTAAGCGTAA | 1.07 |
| ATGTACCAGC | 1.04 |
| TATAAGGAAT | 0.975 |

| Sequence | switch fluorescence ratio |
| --- | --- |
| GCCTATTTAT | 0.999 |
| TAATGTGTG | 0.987 |
| CAAGAGTTGT | 0.96 |
| CGATAGTTGC | 1.03 |
| CCTGGTCTAC | 1.59 |
| TCGCGCTTCT | 1.04 |
| GCGAGCGTG | 0.985 |
| AGCAGCATGA | 1.03 |
| CCATTTCAGG | 1.02 |
| AACTTTTCCG | 1.01 |
| CTGCACAGAG | 1.04 |
| CCAAGGAATC | 1.88 |
| TCGTGGCGTA | 0.988 |
| ACAAGTTATG | 0.929 |
| TTTGTACCCG | 1.03 |
| GCGGCGGTCT | 1.11 |
| CTGCGTAGAA | 1.02 |
| CGAGCTGCGT | 1.02 |
| AACGTTATTG | 1.04 |
